# Assay results as given in the supplement of paper PMC8728848.
# This is one part of the list.
# B1: PV12658A-bvu-496-32-496 (Bacteroides vulgatus) (protein)
# chain: DLDGAITTPAAVELALNGIYYSLPGNGFNVIFPTVSGSFKAGTMWRQEIVSAGNAVYYSERMLPTLSFSDATEWDADYAVIKNANFLETACNRMSDGEFSGNRRAEVLGEIAYLRALAYFNILVRYCEFWDMNSEYGVVMRNEAPSVSNALKARSSVADSYQYILDQLEIAIEKAPDWKKLSQASKEAAKALKARVLLYAGKYTEAVAAVNDAIDTNSPLPEANYGDVFDKFSTTKEILFARVFDQKDATNTSTRQQCYGNSPTKKQGYWGPTNEYVELVGDDPRADAIFSKVDSLMDSRSSAVAYNLKSVKKLLNDANDMPVIFSRVSELYLIKAEALYRSGASISEAYAPIRKLRERAGAEIILPANNEELETAIFNEWMLELSFENWHEWFAMIRFAGYTEKPDFTRLLALNKTLREALEKEYEKSEAQGDNYYQRIIDRRIDAIPSSEISSNLECKQNPGY
# Key:
# Test in all cases: glycan array binding signal (z-score within array); higher = stronger binding
# Conditions in all cases: glycan notation: IUPAC condensed, linker removed
# [1] = biological target: Gal(a1-3)Gal(b1-4)GlcNAc(b1-2)Man
# Method in brief: (§1)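 The binding signal is a Z-score computed within each array and averaged over linkers. Arrays of the same protein sequence at different concentrations or buffers were also averaged together. Data originate from 3228 arrays in the Consortium for Functional Glycomics database, kept only where the protein sequence was available.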
# [2] = biological target: Gal(a1-3)Gal(b1-4)GlcNAc(b1-2)Man(a1-3)[Gal(a1-3)Gal(b1-4)GlcNAc(b1-2)Man(a1-6)]Man(b1-4)GlcNAc(b1-4)GlcNAc
# Method in brief: as §1
# [3] = biological target: Gal(a1-3)Gal(b1-4)GlcNAc(b1-3)GalNAc
# Method in brief: as §1
# [4] = biological target: Gal(a1-3)Gal(b1-4)GlcNAc(b1-6)GalNAc
# Method in brief: as §1
# [5] = biological target: Gal(a1-3)Gal(b1-4)[Fuc(a1-3)]GlcNAc
# Method in brief: as §1
# [6] = biological target: Gal(a1-3)Gal(b1-4)[Fuc(a1-3)]GlcNAc(b1-2)Man(a1-3)[Gal(a1-3)Gal(b1-4)[Fuc(a1-3)]GlcNAc(b1-2)Man(a1-6)]Man(b1-4)GlcNAc(b1-4)GlcNAc
# Method in brief: as §1
# Gal(a1-3)GalNAc = biological target: Gal(a1-3)GalNAc
# Method in brief: as §1
# [7] = biological target: Gal(a1-3)[Gal(a1-4)]Gal(b1-4)GlcNAc
# Method in brief: as §1
# [8] = biological target: Gal(a1-4)Gal(b1-3)GlcNAc(b1-2)Man(a1-3)[Gal(a1-4)Gal(b1-3)GlcNAc(b1-2)Man(a1-6)]Man(b1-4)GlcNAc(b1-4)GlcNAc
# Method in brief: as §1
# Gal(a1-4)Gal(b1-4)Glc = biological target: Gal(a1-4)Gal(b1-4)Glc
# Method in brief: as §1
# Gal(a1-4)Gal(b1-4)GlcNAc = biological target: Gal(a1-4)Gal(b1-4)GlcNAc
# Method in brief: as §1
# [9] = biological target: Gal(a1-4)Gal(b1-4)GlcNAc(b1-2)Man(a1-3)[Gal(a1-4)Gal(b1-4)GlcNAc(b1-2)Man(a1-6)]Man(b1-4)GlcNAc(b1-4)GlcNAc
# Method in brief: as §1
# [10] = biological target: Gal(a1-4)Gal(b1-4)GlcNAc(b1-3)Gal(b1-4)Glc
# Method in brief: as §1
# Gal(a1-4)GlcNAc = biological target: Gal(a1-4)GlcNAc
# Method in brief: as §1
# Gal(a1-6)Glc = biological target: Gal(a1-6)Glc
# Method in brief: as §1
# Gal(b1-2)Gal = biological target: Gal(b1-2)Gal
# Method in brief: as §1
# Gal(b1-3)Gal = biological target: Gal(b1-3)Gal
# Method in brief: as §1
# Gal(b1-3)Gal(b1-4)GlcNAc = biological target: Gal(b1-3)Gal(b1-4)GlcNAc
# Method in brief: as §1
# Gal(b1-3)GalNAc = biological target: Gal(b1-3)GalNAc
# Method in brief: as §1
# [11] = biological target: Gal(b1-3)GalNAc(a1-3)[Fuc(a1-2)]Gal(b1-4)Glc
# Method in brief: as §1
# [12] = biological target: Gal(b1-3)GalNAc(a1-3)[Fuc(a1-2)]Gal(b1-4)GlcNAc
# Method in brief: as §1
# Gal(b1-3)GalNAc(b1-3)Gal = biological target: Gal(b1-3)GalNAc(b1-3)Gal
# Method in brief: as §1
# [13] = biological target: Gal(b1-3)GalNAc(b1-3)Gal(a1-4)Gal(b1-4)Glc
# Method in brief: as §1
# [14] = biological target: Gal(b1-3)GalNAc(b1-4)Gal(b1-4)Glc
# Method in brief: as §1
# [15] = biological target: Gal(b1-3)GalNAc(b1-4)[Neu5Ac(a2-3)]Gal(b1-4)Glc
# Method in brief: as §1
# Gal(b1-3)GlcNAc = biological target: Gal(b1-3)GlcNAc
# Method in brief: as §1
# [16] = biological target: Gal(b1-3)GlcNAc(a1-3)Gal(b1-4)GlcNAc
# Method in brief: as §1
# [17] = biological target: Gal(b1-3)GlcNAc(a1-6)Gal(b1-4)GlcNAc
# Method in brief: as §1
# Gal(b1-3)GlcNAc(b1-2)Man = biological target: Gal(b1-3)GlcNAc(b1-2)Man
# Method in brief: as §1
# [18] = biological target: Gal(b1-3)GlcNAc(b1-2)Man(a1-3)[Gal(b1-3)GlcNAc(b1-2)Man(a1-6)]Man(b1-4)GlcNAc(b1-4)GlcNAc
# Method in brief: as §1
# [19] = biological target: Gal(b1-3)GlcNAc(b1-2)Man(a1-3)[Gal(b1-3)GlcNAc(b1-2)Man(a1-6)]Man(b1-4)GlcNAc(b1-4)[Fuc(a1-6)]GlcNAc
# Method in brief: as §1
# [20] = biological target: Gal(b1-3)GlcNAc(b1-2)Man(a1-3)[GlcNAc(b1-4)][Gal(b1-3)GlcNAc(b1-2)Man(a1-6)]Man(b1-4)GlcNAc(b1-4)GlcNAc
# Method in brief: as §1
# [21] = biological target: Gal(b1-3)GlcNAc(b1-2)[Gal(b1-3)GlcNAc(b1-6)]Man(a1-6)[Gal(b1-3)GlcNAc(b1-2)Man(a1-3)]Man(b1-4)GlcNAc(b1-4)GlcNAc
# Method in brief: as §1
# [22] = biological target: Gal(b1-3)GlcNAc(b1-3)Gal(b1-3)GlcNAc
# Method in brief: as §1
# [23] = biological target: Gal(b1-3)GlcNAc(b1-3)Gal(b1-4)Glc
# Method in brief: as §1
# [24] = biological target: Gal(b1-3)GlcNAc(b1-3)Gal(b1-4)GlcNAc
# Method in brief: as §1
# [25] = biological target: Gal(b1-3)GlcNAc(b1-3)Gal(b1-4)GlcNAc(b1-2)Man(a1-3)[Gal(b1-3)GlcNAc(b1-3)Gal(b1-4)GlcNAc(b1-2)Man(a1-6)]Man(b1-4)GlcNAc(b1-4)GlcNAc
# Method in brief: as §1
binder,measurement,setting,value
B1,glycan array binding signal (z-score),[1],-0.131
same,glycan array binding signal (z-score),[2],4.55
same,glycan array binding signal (z-score),[3],0.476
same,glycan array binding signal (z-score),[4],-0.133
same,glycan array binding signal (z-score),[5],-0.336
same,glycan array binding signal (z-score),[6],0.883
same,glycan array binding signal (z-score),Gal(a1-3)GalNAc,-0.281
same,glycan array binding signal (z-score),[7],1.73
same,glycan array binding signal (z-score),[8],0.354
same,glycan array binding signal (z-score),Gal(a1-4)Gal(b1-4)Glc,0.596
same,glycan array binding signal (z-score),Gal(a1-4)Gal(b1-4)GlcNAc,0.017
same,glycan array binding signal (z-score),[9],7.57
same,glycan array binding signal (z-score),[10],-0.309
same,glycan array binding signal (z-score),Gal(a1-4)GlcNAc,-0.462
same,glycan array binding signal (z-score),Gal(a1-6)Glc,-0.247
same,glycan array binding signal (z-score),Gal(b1-2)Gal,-0.301
same,glycan array binding signal (z-score),Gal(b1-3)Gal,-0.433
same,glycan array binding signal (z-score),Gal(b1-3)Gal(b1-4)GlcNAc,0.806
same,glycan array binding signal (z-score),Gal(b1-3)GalNAc,-0.376
same,glycan array binding signal (z-score),[11],-0.045
same,glycan array binding signal (z-score),[12],-0.389
same,glycan array binding signal (z-score),Gal(b1-3)GalNAc(b1-3)Gal,-0.547
same,glycan array binding signal (z-score),[13],-0.12
same,glycan array binding signal (z-score),[14],0.963
same,glycan array binding signal (z-score),[15],1.17
same,glycan array binding signal (z-score),Gal(b1-3)GlcNAc,-0.316
same,glycan array binding signal (z-score),[16],-0.456
same,glycan array binding signal (z-score),[17],-0.176
same,glycan array binding signal (z-score),Gal(b1-3)GlcNAc(b1-2)Man,0.552
same,glycan array binding signal (z-score),[18],0.146
same,glycan array binding signal (z-score),[19],-0.422
same,glycan array binding signal (z-score),[20],-0.106
same,glycan array binding signal (z-score),[21],0.707
same,glycan array binding signal (z-score),[22],-0.308
same,glycan array binding signal (z-score),[23],-0.133
same,glycan array binding signal (z-score),[24],-0.185
same,glycan array binding signal (z-score),[25],0.288
